The text below walks through data of PubChem BioAssay AID1508642 (National Center for Advancing Translational Sciences (NCATS), 2021).

Hit rate of the full screen: of about 43,000 compounds, about 200 (0.47%) were called active. Not shown: some 12% with an inconclusive outcome. Calls come from the whole dose curve; as a rule, active = well fitted cell-killing curve with a large enough effect; inconclusive = small, poorly fitted or top-dose-only effect, or effect the other way; inactive = flat fitted curve, though single readings scatter. Some of the results follow.
% is set by controls: 0 for no effect and ±100 for the full control effect.

This test can be described thus: Cell viability qHTS assay in S16 Pmp22-F2sN cells. Note: nearly all actives have a fitted effect of over 65% in size. Conditions: S16 Pmp22-F2sN Schwann cells (luciferase reporters placed in the Pmp22 gene) viability, CellTiter-Glo, 24 h; series mostly up to 57.5 µM; activity change, negative = cytotoxicity: at the top concentration. A digest of the protocol:
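Seed 500-1,000 S16 Pmp22-F2sN cells per well in phenol-red-free DMEM with 10% heat-inactivated FBS; pin-add 23 nL compound; incubate 24 h at 37C; add CellTiter-Glo, wait 15 min protected from light; read luminescence.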
Background: In qHTS, concentration-response curves come from the screen itself.
With `CCOc1ccc(NC(=O)c2nc3nc(C)cc(C(F)F)n3n2)cc1`, the “activity change, negative = cytotoxicity” value is inactive: -1.96%.
Consider `Cc1cc(C)c2c(-n3cccc3)c(C(=O)NCc3cccc(F)c3)sc2n1`, for which the “activity change, negative = cytotoxicity” value is inactive: 10.5%.
With `CCc1nnc(SCc2ccc(OC)cc2)c2cc3sc(C)cc3n12`, the “activity change, negative = cytotoxicity” value was inactive: 19.8%.
`COc1cc(CCNC(=O)c2ccc3c(c2)c(C)c(C)n3Cc2cccc(C)c2)cc(OC)c1OC`: the “activity change, negative = cytotoxicity” value is inactive: -19.8%.
As for `COCCCn1c(=N)c(C(=O)NCc2cccnc2)cc2c(=O)n3cc(C)ccc3nc21`, the “activity change, negative = cytotoxicity” value was inactive: 5.42%.
`COc1ccc(OC)c(Nc2ncnc3c2nc2n3CCCC2)c1`: the “activity change, negative = cytotoxicity” value was inactive: 2.11%.
As for `COc1cc(OC)c(NC(=O)c2nn(-c3ccc(C)cc3)c(=O)c3c2c2ccccc2n3C)cc1Cl`, the “activity change, negative = cytotoxicity” value is inactive: 25.4%.
In the case of `O=C(Nc1cccc(C(=O)N2CCN(c3cccc(Cl)c3)CC2)c1)c1nsc2ccccc12`, the “activity change, negative = cytotoxicity” value was inactive: -8.64%.
The value for `CCOc1ccc(C2c3c(oc4ccc(C)cc4c3=O)C(=O)N2CCCN(C)C)cc1` (configuration not stated) was inactive: 3.04%; that for `CCc1ccccc1NC(=O)c1ccc2c(SCC(=O)O)c3c(nc2c1)CCC3` was inactive: 6.2%; that for `Cc1ccccc1Cn1c2ccccc2c2cnn(CC(=O)NCC(C)c3ccccc3)c(=O)c21` (configuration not stated) was inactive: 18.2%.
With `CCc1ccccc1NC(=O)C1CCN(c2cnccn2)CC1`, the “activity change, negative = cytotoxicity” value was inactive: 4.73%.
In the case of `CC(C)CCn1nnc2sc(-c3ccccc3)cc2c1=O`, the “activity change, negative = cytotoxicity” value was inactive: 1.21%.
In the case of `CCCCSCCCNC(=O)c1cn(C)c2ccc(S(=O)(=O)N3CCCCCC3)cc2c1=O`, the “activity change, negative = cytotoxicity” value is inactive: 7.54%.
For the molecule `CC(=O)c1nnn(-c2ccc(C)cc2Cl)c1C`, the “activity change, negative = cytotoxicity” value was inactive: -2.75%.
In the case of `O=C(CCn1cnnn1)Nc1cc(C(F)(F)F)cc(C(F)(F)F)c1`, the “activity change, negative = cytotoxicity” value is inactive: -4.7%.
With `CC(=O)c1ccc(Nc2ccc3cc(S(=O)(=O)N4CCCC4)ccc3n2)cc1` the figure was inactive: -19.4%.
On to `COc1cc(NC(=O)CSc2nccn2C)cc(OC)c1OC`, for which the “activity change, negative = cytotoxicity” value was inactive: 12.6%.
Take `COc1ccc2c(c1)c1c(c(=O)n(-c3ccc(OC)c(OC)c3)c(=O)n1Cc1ccccc1F)n2C`: the “activity change, negative = cytotoxicity” value was inactive: -1.12%.
Consider `Cc1ccc(NC(=O)c2c(NC(=O)Cc3ccccc3)sc3c2CCCC3)cc1`, for which the “activity change, negative = cytotoxicity” value was inactive: 8.87%.
`CCC(=O)C1=C(c2ccc(OC)c(OC)c2)N(C(=O)CC)n2c(CC)nnc2S1`: the “activity change, negative = cytotoxicity” value was inactive: -10.3%.
As to `CCOc1ccc(CCNC(=O)CN2C(=O)COc3ccc(S(=O)(=O)N4CCCCCC4)cc32)cc1`, the “activity change, negative = cytotoxicity” value is inactive: 17%.
Consider `CC(=O)c1cccc(NC(=O)Cn2c(=O)oc3cc(S(=O)(=O)N4CCCC4)ccc32)c1`, for which the “activity change, negative = cytotoxicity” value was inactive: 8.55%.
With `CC(=O)Nc1ccc(NC(=O)CCSCCc2ccccn2)cc1` the figure was inactive: -6.38%; with `O=S(=O)(Nc1cc(F)ccc1F)c1ccc2[nH]c3c(c2c1)CCCCC3`, inactive: 8.01%.
The value for `Cc1ccc2oc(=O)c3cc(C(=O)N4CCN(c5ccccc5F)CC4)sc3c2c1` was inactive: 4.16%; that for `CC(C)(C)c1ccc(Oc2ccc(NC(=O)CCC(=O)OCC(=O)c3ccccc3)cc2)cc1` was inactive: 7.87%; that for `N#Cc1c(-n2ncnc2-c2cccc(Br)c2)sc2c1CCCCC2` was inactive: -2.09%.
For the molecule `COc1ccc(-n2c(SCC(=O)Nc3cccc(C)c3C)nc3c([nH]c4ccccc43)c2=O)cc1`, the “activity change, negative = cytotoxicity” value was inactive: 5.57%.
`Fc1cccc(Cl)c1CNCCSc1nnnn1-c1ccccc1`: the “activity change, negative = cytotoxicity” value is inactive: 4.17%.
With `O=C(Nc1cc2ccc(O)cc2oc1=O)c1ccccc1` the figure was inactive: -7.14%; with `CC(C)CCNC(=O)c1ccc2c(c1)N(Cc1ccccc1F)C(=O)c1ccccc1S2(=O)=O`, inactive: -8.58%; with `O=C(CNC(=O)c1ccccc1F)OCc1cc(=O)n2nc(C3CCCCC3)sc2n1`, inactive: 11.6%.
For the molecule `COc1cccc(C(=O)N(Cc2ccco2)c2ccccn2)c1`, the “activity change, negative = cytotoxicity” value was inactive: -7.34%.
With `COC(=O)CNC(=O)N1CCN(S(=O)(=O)c2ccc3c(ccn3C)c2)CC1`, the “activity change, negative = cytotoxicity” value was inactive: 3.37%.
Take `COc1ccc(C(=O)Nc2ccc3oc(-c4ccc5ccccc5c4)nc3c2)cc1Br`: the “activity change, negative = cytotoxicity” value is inactive: 11.9%.
With `Cn1cccc1-c1cc2n(n1)CCC(=O)N2CCCC(=O)NCc1ccc(F)cc1` the figure was inactive: 0.0114%; with `CCCCNC(=O)CN1C(=O)COc2ccc(S(=O)(=O)N3CCCCCC3)cc21`, inactive: -2.45%.
For the molecule `COc1ccc2cc(CNc3ccc(OC)c(OC)c3)c(=O)n(CC(=O)Nc3ccccc3F)c2c1`, the “activity change, negative = cytotoxicity” value was inactive: 14.1%.
With `CCOC(=O)c1[nH]c(C)c(CCC(=O)Nc2cccc(SC)c2)c1C` the figure was inactive: 0.972%; with `Cc1cc(=O)[nH]c2nnc(SCc3ccc(C(F)(F)F)cc3)n12`, inactive: -4.81%; with `Cc1cccc(C)c1NC(=O)Cn1c(SCC(=O)NCc2ccccc2)nc2ccccc21`, inactive: 10.8%.
For the molecule `Cc1ccc(NC(=O)CN2C(=O)c3ccccc3Sc3ccc(C(=O)N4CCOCC4)cc32)c(Cl)c1`, the “activity change, negative = cytotoxicity” value was inactive: -10.1%.
Take `CCN(CC)S(=O)(=O)c1ccc2oc(C(=O)Nc3cc(C)ccc3OC)c(C)c2c1`: the “activity change, negative = cytotoxicity” value was inactive: 0.108%.
For `CCOc1ccccc1CNCc1c(C(=O)O)n(Cc2ccc(F)cc2)c2cc(C)ccc12`, the “activity change, negative = cytotoxicity” value is inactive: -20.1%.
For `CC(=O)c1ccc(N2CCN(C(=O)CCn3cnc4onc(-c5ccc(F)cc5)c4c3=O)CC2)cc1`, the “activity change, negative = cytotoxicity” value was inactive: 1.17%.
With `O=C1CC(c2ccc(F)cc2)c2c(c3ccccc3[nH]c2=O)O1` (configuration not stated), the “activity change, negative = cytotoxicity” value was inactive: -4.43%.
